Assay results published in PubChem BioAssay (NCATS).
Some of the results follow. These are further read-outs of the screen, such as a control signal, another cell line or another target. No call is given for them. Most of these compounds were active or inconclusive in the main read-out, so they are no random draw. Potencies come from curve fits of mixed quality, noted in brackets.

Test: Cell-based coincidence reporter assay to measure PMP22 gene transcription in S16 Pmp22-F2sN cells - Confirmatory screen (AID 1508646)
Details: S16 Schwann cells Pmp22-F2sN, dual luciferase, 24 h
Summary of the method: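 S16 rat Schwann cells carrying FLuc-2A-NLuc reporter in Pmp22 3' UTR (500-1,000 cells/well) treated with pinned compounds for 24 h at 37C. Dual-luciferase reads: FLuc luminescence first, then NLuc after Stop&Glo.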

[1] = measured here: FLuc reporter channel
[2] = measured here: NLuc reporter channel
Tags give direction and shape of the fitted curve.

SMILES	AC50 [1]	AC50 [2]
O=C(CSc1nc2nccnc2c(=O)n1CCc1c[nH]c2ccccc12)Nc1ccc(F)cc1	15.3 µM [falling, partial curve, poor fit]	
Cc1noc(/C=C/c2ccco2)c1S(=O)(=O)N1CCC(C(=O)Nc2ccc(F)c(Cl)c2)CC1	6.11 µM [falling, full curve, poor fit]	
Cc1cc(C)cc(NC(=O)c2ccc3oc(=O)c(S(=O)(=O)c4ccc(F)cc4)cc3c2)c1		27.3 µM [falling, partial curve, poor fit]
O=C(COc1ccc(F)cc1)Nc1ccc2nc(SCC(=O)N3CCc4ccccc43)sc2c1	4.32 µM [falling, full curve, poor fit]	3.85 µM [falling, full curve, poor fit]
CCCNC(=O)c1ccc2c(c1)N=C(CCC)c1ccccc1S2	4.32 µM [falling, full curve]	3.85 µM [falling, full curve]
COC(=O)c1c(-c2ccc(Cl)cc2)noc1N1CCN(c2ccccc2OC)CC1	19.3 µM [falling, partial curve]	19.3 µM [falling, partial curve]
COc1cccc(NS(=O)(=O)c2cc(-c3cnc(C4CC4)o3)ccc2C)c1	1.93 µM [falling, full curve]	3.85 µM [falling, full curve]
COc1ccc(NC(=O)c2nc(S(=O)(=O)Cc3ccc(C)cc3)ncc2Cl)cc1	3.85 µM [falling, partial curve]	7.69 µM [falling, partial curve]
CCOC(=O)C1CCN(C(=O)CSc2c3c(nc4ccc(Cl)cc24)CCCC3)CC1	19.3 µM [falling, partial curve]	15.3 µM [falling, partial curve]
CCOc1ccccc1CNC(=O)CCn1c(=O)c2cccn2c2ccc(F)cc21	15.3 µM [falling, full curve, poor fit]	15.3 µM [falling, full curve, poor fit]
O=S(=O)(c1ccc(-c2csc(=Nc3ccc(OC(F)(F)Cl)cc3)n2CCCO)cc1)N1CCCC1	19.3 µM [falling, partial curve]	19.3 µM [falling, partial curve]
CCOc1cc(C(Nc2cc(C)ccn2)c2ccc3cccnc3c2O)ccc1OC (configuration not stated)	17.2 µM [falling, partial curve]	21.7 µM [falling, partial curve]
CC(=O)N1CCc2c(sc(NC(=O)CSc3ccccc3)c2-c2nc3ccccc3s2)C1	10.9 µM [falling, partial curve]	15.3 µM [falling, partial curve]
CCC(=O)C1=C(c2cccc([N+](=O)[O-])c2)N(C(=O)CC)n2c(nnc2C2CCCCC2)S1	9.68 µM [falling, full curve]	12.2 µM [falling, full curve]
CCC1=Nc2cc(C(=O)NCCCOC)ccc2Sc2ccc(Br)cc21	5.44 µM [falling, partial curve, poor fit]	1.93 µM [falling, full curve, poor fit]
COC(=O)c1c(-c2ccc(Cl)cc2)noc1N1CCN(c2cccc(OC)c2)CC1	10.9 µM [falling, full curve]	12.2 µM [falling, partial curve]
O=C(Nc1ccc(Br)c2cccnc12)c1cccc2ccccc12	17.2 µM [falling, partial curve, poor fit]	30.6 µM [falling, partial curve]
Cc1ccc(OCC(=O)Nc2ccc3nc(SCC(=O)N4CCc5ccccc54)sc3c2)cc1	7.69 µM [falling, full curve]	6.85 µM [falling, full curve]
COCCn1c(SCc2ccccc2F)nc2c([nH]c3ccccc32)c1=O	24.3 µM [falling, partial curve, poor fit]	24.3 µM [falling, partial curve, poor fit]
CCOc1ccccc1NC(=O)c1c(NCc2ccc(C)o2)sc2c1CCCCC2	21.7 µM [falling, partial curve, poor fit]	21.7 µM [falling, partial curve]
